Literature values in US8058242B2, “Chimeric proteins with natriuretic activity” (The University of Queensland, priority 2004, dated 2011).

Tested on: conscious rabbits
Details: doses of 1, 2, and 4 μg/kg/min (Woods et al., 1989); cited from earlier work

CC[C@H](C)[C@@H]1NC(=O)[C@H](CCCNC(=N)N)NC(=O)[C@H](CC(=O)O)NC(=O)[C@H](CCSC)NC(=O)[C@H](CCCNC(=N)N)NC(=O)CNC(=O)CNC(=O)[C@H](Cc2ccccc2)NC(=O)[C@@H](NC(=O)[C@H](CO)NC(=O)[C@H](CO)NC(=O)[C@H](CCCNC(=N)N)NC(=O)[C@H](CCCNC(=N)N)NC(=O)[C@H](CC(C)C)NC(=O)[C@@H](N)CO)CSSC[C@@H](C(=O)N[C@@H](CC(N)=O)C(=O)N[C@@H](CO)C(=O)N[C@@H](Cc2ccccc2)C(=O)N[C@@H](CCCNC(=N)N)C(=O)N[C@@H](Cc2ccc(O)cc2)C(=O)O)NC(=O)CNC(=O)[C@H](CC(C)C)NC(=O)CNC(=O)[C@H](CO)NC(=O)[C@H](CCC(N)=O)NC(=O)[C@H](C)NC(=O)CNC1=O [hANP, reference compound]
maximum reduction in blood pressure: 14%
